{"source": "paper PMC4336329", "about": "(PLoS ONE, 2015)", "note": "Out of some 310,000 compounds screened, about 14,000 (4.5%) showed an effect of 50% or more. The effect is printed as a negative number. The list shows a part of the results.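 Note: peak tail current of the secondary pulse compared with the same well before compound.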"}
{"target": "human ether-à-go-go-related gene (hERG) potassium channel (human, UniProt Q12809)", "sequence (Q12809 whole entry, looked up)": "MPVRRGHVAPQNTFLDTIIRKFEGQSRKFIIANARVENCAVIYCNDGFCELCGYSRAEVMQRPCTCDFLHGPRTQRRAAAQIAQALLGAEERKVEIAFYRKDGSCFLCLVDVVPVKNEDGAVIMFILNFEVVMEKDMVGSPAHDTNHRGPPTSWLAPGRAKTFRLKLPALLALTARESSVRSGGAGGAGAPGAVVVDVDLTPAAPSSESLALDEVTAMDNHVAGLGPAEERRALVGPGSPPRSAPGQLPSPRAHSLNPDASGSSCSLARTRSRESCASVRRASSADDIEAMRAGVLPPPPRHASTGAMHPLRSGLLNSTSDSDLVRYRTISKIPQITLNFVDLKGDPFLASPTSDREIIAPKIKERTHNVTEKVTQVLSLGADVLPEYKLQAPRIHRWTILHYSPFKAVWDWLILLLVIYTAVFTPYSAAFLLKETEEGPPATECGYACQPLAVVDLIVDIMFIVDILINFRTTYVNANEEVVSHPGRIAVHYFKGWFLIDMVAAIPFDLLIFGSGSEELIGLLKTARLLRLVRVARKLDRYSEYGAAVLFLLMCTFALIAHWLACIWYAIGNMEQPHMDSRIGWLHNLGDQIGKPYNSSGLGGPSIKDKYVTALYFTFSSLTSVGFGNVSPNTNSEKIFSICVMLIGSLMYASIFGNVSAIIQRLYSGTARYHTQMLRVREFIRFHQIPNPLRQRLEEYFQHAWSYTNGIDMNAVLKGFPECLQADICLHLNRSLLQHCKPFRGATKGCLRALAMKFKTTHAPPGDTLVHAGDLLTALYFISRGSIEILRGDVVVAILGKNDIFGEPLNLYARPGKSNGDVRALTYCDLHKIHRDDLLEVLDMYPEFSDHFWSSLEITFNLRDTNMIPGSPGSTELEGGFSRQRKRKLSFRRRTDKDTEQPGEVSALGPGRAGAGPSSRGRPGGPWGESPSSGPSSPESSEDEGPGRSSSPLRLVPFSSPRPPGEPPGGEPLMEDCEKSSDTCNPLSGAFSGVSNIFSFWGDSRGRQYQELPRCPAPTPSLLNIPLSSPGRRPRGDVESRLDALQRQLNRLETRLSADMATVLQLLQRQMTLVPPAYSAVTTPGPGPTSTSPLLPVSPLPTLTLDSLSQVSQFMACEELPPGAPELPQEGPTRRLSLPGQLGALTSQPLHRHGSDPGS", "assay": "primary screen, population patch clamp on CHO cells stably expressing hERG", "units": {"hERG current change (%, negative = inhibition) at 10uM": "%"}}
{"smiles": "Cc1cccc(NC(=O)c2cccc(NS(=O)(=O)c3ccc(Cl)cc3)c2)c1", "hERG current change (%, negative = inhibition) at 10uM": -0.342}
{"smiles": "COc1cc2nc(CC(C)C)n(NC(=O)c3ccccc3Br)c(=O)c2cc1OC", "hERG current change (%, negative = inhibition) at 10uM": 10.6}
{"smiles": "Cc1ccsc1/C=N/NC(=O)c1ccc2ccccc2c1", "hERG current change (%, negative = inhibition) at 10uM": 38.5}
{"smiles": "O=C1C2C3C=CC(C3)C2C(=O)N1c1cccc2cccnc12", "note": "(stereo not shown)", "hERG current change (%, negative = inhibition) at 10uM": -2.94}
{"smiles": "CC1=C(C(=O)OCC(Br)(Br)Br)C(c2cccc([N+](=O)[O-])c2)NC(=O)N1CCCC(=O)O", "note": "(stereo not shown)", "hERG current change (%, negative = inhibition) at 10uM": -3.03}
{"smiles": "CCCCN(CCCC)CC(O)CN(c1cc([N+](=O)[O-])ccc1OC)S(=O)(=O)c1ccccc1", "note": "(stereo not shown)", "hERG current change (%, negative = inhibition) at 10uM": -67}
{"smiles": "COc1ccc(NC(=O)O/N=C/c2ccccc2)cc1", "hERG current change (%, negative = inhibition) at 10uM": -2.52}
{"smiles": "CC(C)NC(=O)c1onc(CSc2nc3ccccc3[nH]2)c1C(=O)NC(C)C", "hERG current change (%, negative = inhibition) at 10uM": -10.4}
{"smiles": "CCn1c(SCC(=O)N2CCCCC2C)nnc1-c1ccco1", "note": "(stereo not shown)", "hERG current change (%, negative = inhibition) at 10uM": -30.7}
{"smiles": "CCOc1ccccc1NC(=O)COC(=O)c1ccc2ccccc2n1", "hERG current change (%, negative = inhibition) at 10uM": 24}
{"smiles": "CN1CCC(O)(c2ccccc2)C(C(=O)c2ccccc2)C1", "note": "(stereo not shown)", "hERG current change (%, negative = inhibition) at 10uM": -2.34}
{"smiles": "COc1ccc(N2CCN(S(=O)(=O)c3c(C(=O)N4CCOCC4)c(C)n(C)c3C)CC2)cc1", "hERG current change (%, negative = inhibition) at 10uM": 2.81}
{"smiles": "CC(C)c1c(O)nc(SCC(=O)N2CCCCC2)[nH]c1=O", "hERG current change (%, negative = inhibition) at 10uM": -28.9}
{"smiles": "O=[N+]([O-])c1ccc2nc(-c3ccccc3)oc2c1", "hERG current change (%, negative = inhibition) at 10uM": 16.1}
{"smiles": "Cc1ccccc1S(=O)(=O)/N=C(/c1ccccc1)N(C)C", "hERG current change (%, negative = inhibition) at 10uM": 10.7}
{"smiles": "CC1CN(CCCSc2ccc(Cl)cc2)CC(C)O1.O=C(O)C(=O)O", "note": "(stereo not shown)", "hERG current change (%, negative = inhibition) at 10uM": -47.9}
{"smiles": "O=C(CCSCc1cccc(Cl)c1)NCCc1ccccc1", "hERG current change (%, negative = inhibition) at 10uM": -27.2}
{"smiles": "CCOC(=O)N1CCN(C(=O)Cc2ccc(-n3c(=S)[nH]c4ccccc4c3=O)cc2)CC1", "hERG current change (%, negative = inhibition) at 10uM": 8.42}
{"smiles": "Cc1ccc(N2C(=O)CC(N3CCN/C3=C3\\CC/C(=C\\c4ccccc4)C3=O)C2=O)cc1", "note": "(stereo not shown)", "hERG current change (%, negative = inhibition) at 10uM": 44.7}
{"smiles": "O=c1oc(/C=C/c2ccco2)nc2sc3c(c12)CCC3", "hERG current change (%, negative = inhibition) at 10uM": 13.2}
{"smiles": "CCCn1c(C)cc(-c2csc(NC(=O)CCc3nc4ccccc4c(=O)[nH]3)n2)c1C", "hERG current change (%, negative = inhibition) at 10uM": -15.6}
{"smiles": "CC(=O)Nc1ccc(Sc2ccccc2C(=O)N2CCCC2)cn1", "hERG current change (%, negative = inhibition) at 10uM": -24.9}
{"smiles": "CCC(=O)Nc1ccc(C(=O)NNC(=O)c2cccc(C)c2)cc1", "hERG current change (%, negative = inhibition) at 10uM": 5.41}
{"smiles": "CC(C)CNC(=O)NC(=O)COc1c(F)c(F)cc(F)c1F", "hERG current change (%, negative = inhibition) at 10uM": 3.76}
{"smiles": "C[C@@H]1C[C@H]2[C@@H]3CCC4=CC(=O)C=C[C@]4(C)[C@@]3(Cl)[C@@H](O)C[C@]2(C)[C@@]1(OC(=O)c1ccco1)C(=O)CCl", "hERG current change (%, negative = inhibition) at 10uM": 9.39}
{"smiles": "CC1(C)CC(NC(=O)C23CCC(C)(C(=O)C2)C3(C)C)CC(C)(C)N1", "note": "(stereo not shown)", "hERG current change (%, negative = inhibition) at 10uM": -5.57}
{"smiles": "CCN(c1ccccc1)S(=O)(=O)c1ccc(OC)c(OC)c1", "hERG current change (%, negative = inhibition) at 10uM": -1.4}
{"smiles": "O=C(O)C1C2C=CC(O2)C1C(=O)Nc1ccc2c(c1)OCCO2", "note": "(stereo not shown)", "hERG current change (%, negative = inhibition) at 10uM": 20.2}
{"smiles": "CN1CCN(c2ccc(NC(=O)COc3cccc4ccccc34)cc2)CC1", "hERG current change (%, negative = inhibition) at 10uM": -65.4}
{"smiles": "COc1c(F)c(F)c(C(=O)O)c(Nc2ccc(C)cc2)c1F", "hERG current change (%, negative = inhibition) at 10uM": 25.7}
{"smiles": "CCOC(=O)c1c(C)n(C)c2ccc(OCC(O)CN3C(=O)c4ccccc4S3(=O)=O)cc12", "note": "(stereo not shown)", "hERG current change (%, negative = inhibition) at 10uM": 6.84}
{"smiles": "O=C(O)/C=C/C(=O)Nc1ccc(C2(c3ccc(NC(=O)/C=C/C(=O)O)cc3)c3ccccc3-c3ccccc32)cc1", "hERG current change (%, negative = inhibition) at 10uM": 12.9}
{"smiles": "O=c1[nH]c(=S)n(-c2ccc(F)cc2)c(O)c1/C=N/N1CCOCC1", "hERG current change (%, negative = inhibition) at 10uM": 17.1}
{"smiles": "Cc1nc([N+](=O)[O-])cn1-c1nc2ccccn2c1[N+](=O)[O-]", "hERG current change (%, negative = inhibition) at 10uM": 18.5}
{"smiles": "CC(C)CCN(C(=O)c1csnn1)C(C(=O)NC1CCCCC1)c1ccc(F)cc1", "note": "(stereo not shown)", "hERG current change (%, negative = inhibition) at 10uM": -3.38}
{"smiles": "CCN(C(=O)COC(=O)c1cccnc1SC)C1CCCCC1", "hERG current change (%, negative = inhibition) at 10uM": -15.4}
{"smiles": "Cc1ccccc1N1CCN(C2=NC(=O)/C(=C/c3cn[nH]c3-c3ccccc3)S2)CC1", "hERG current change (%, negative = inhibition) at 10uM": 10.8}
{"smiles": "O=C(NCCCN1CCOCC1)c1ccc(Sc2ccc(Br)cc2)c([N+](=O)[O-])c1", "hERG current change (%, negative = inhibition) at 10uM": -1.93}
{"smiles": "CCOc1ccccc1CN1CCCC(C(=O)c2ccc(OC)c(OC)c2)C1", "note": "(stereo not shown)", "hERG current change (%, negative = inhibition) at 10uM": -74.2}
{"smiles": "Cc1cccc(NC(=O)c2cc(NC(=O)C3CC=CCC3C(=O)O)ccc2N2CCOCC2)c1", "note": "(stereo not shown)", "hERG current change (%, negative = inhibition) at 10uM": 7.28}
{"smiles": "COc1ccc(N(C)S(=O)(=O)c2cccc(C(=O)Nc3nc4ccccc4[nH]3)c2)cc1", "hERG current change (%, negative = inhibition) at 10uM": 8.04}
{"smiles": "COc1ccc(-c2noc(CCC(=O)NCCCN3CCC(Cc4ccccc4)CC3)n2)cc1", "hERG current change (%, negative = inhibition) at 10uM": -80.7}
{"smiles": "COc1ccc(OC)c(S(=O)(=O)N2CCC(C(=O)NC3CCCCC3)CC2)c1", "hERG current change (%, negative = inhibition) at 10uM": -6.76}
